“And” between values parts separate entries of the source, which are not always exact repeats. Equal values may be shown once. Among all 150,000 compounds or so, about 6,500 (4.3%) were called active. The shares of active, inactive and inconclusive entries below differ from those in the screen. Calls come from the whole dose curve; as a rule, active = well fitted inhibition curve with a large enough effect (not every such curve was filed as active); inconclusive = small, poorly fitted or top-dose-only effect, or another doubt; inactive = no such curve, though single readings can be large or run the other way. Potencies of inconclusive entries are left out as doubtful fits.
These compounds were tested against 15-hydroxyprostaglandin dehydrogenase [NAD(+)] (Homo sapiens) (UniProt P15428) (assay: qHTS Assay for Inhibitors of HPGD (15-Hydroxyprostaglandin Dehydrogenase)). Conditions: purified HPGD, NADH fluorescence kinetic, PGE2 substrate; activity change, negative = inhibition: active compounds read low.
UniProt P15428, sequence (P15428 whole entry, looked up): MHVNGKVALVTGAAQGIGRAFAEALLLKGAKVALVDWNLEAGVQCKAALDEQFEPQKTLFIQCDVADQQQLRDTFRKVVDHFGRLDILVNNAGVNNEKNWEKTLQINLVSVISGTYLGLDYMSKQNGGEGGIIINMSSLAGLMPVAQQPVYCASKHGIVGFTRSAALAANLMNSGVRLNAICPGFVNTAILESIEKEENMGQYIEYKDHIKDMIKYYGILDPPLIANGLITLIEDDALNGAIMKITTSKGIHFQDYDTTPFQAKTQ
In short: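 20 nM HPGD preincubated 15 min at room temperature with compound in 50 mM Tris-HCl pH 8, 0.01% Tween 20. Started with 1 mM NAD+ and 30 uM prostaglandin E2; NADH fluorescence (360/450 nm) read 5 times over 30-s intervals, last minus first.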
% is set by controls: 0 for no effect and ±100 for the full control effect; potency is the fitted concentration of half-maximal effect; tags give direction and shape of the fitted curve.

SMILES | activity change, negative = inhibition | Potency
Cc1cc(NC(=O)C2=C(O)c3ccccc3S(=O)(=O)N2C)no1 | inactive: 1.91% and inactive: -7.08% and inactive: -5.25% | 
O=C1CCCN1CC(CN1CCOCC1)Sc1nc2ccccc2c(=O)n1-c1ccccc1 (centres undefined) | inactive: -7.91% | 
Cc1cccc(N(C)S(=O)(=O)c2ccc3[nH]c(=O)c(=O)[nH]c3c2)c1 |  | active: 14.1 µM
Cc1nn(-c2ccccc2)c(N2CCCC2)c1/C=C1\N=C(c2ccc(F)cc2)OC1=O |  | inconclusive [inhibitor, partial curve]
O=C1OCC(CO)(CO)N=C1NNc1cc(Cl)ccc1Cl |  | inconclusive [inhibitor, partial curve]
O=c1oc2cc(OCc3ccc(F)cc3F)ccc2cc1-c1ccccn1 |  | inconclusive [inhibitor, partial curve]
O=C1NC2(CCCc3ccccc32)C(=O)N1CCOc1ccc(Br)cc1 (centres undefined) |  | active: 15.8 µM
CCCCc1ccc(Nc2nc(CCC)cc(=O)[nH]2)cc1 |  | inconclusive [inhibitor, single point]
Cc1ccccc1CN1C(=O)C(O)(CC(=O)c2ccncc2)c2ccccc21 (centres undefined) | inactive: -15.4% | 
CCOc1ccccc1OCCCOc1ccc(C)cc1Br |  | inconclusive [inhibitor, partial curve]
CCCCNC(=O)c1onc(CSc2ccc(C(C)C)cc2)c1C(=O)O |  | active: 10 µM
Cc1cccc(NC(=O)c2cnc3sccn3c2=O)c1C |  | inconclusive [inhibitor, single point]
CCCCCCCC/C=C\CCCCCCCC(=O)NCc1ccc(O)c(OC)c1 |  | inconclusive [inhibitor, partial curve, poor fit]
COc1ccc(Cl)cc1NC(=O)CN(C)C(C)C(=O)NCC1CCCCC1 (centres undefined) | inactive: -1.24% | 
COc1cc(C2C(C#N)=C(N)Oc3cc(N(C)C)ccc32)cc2c1OCO2 (centres undefined) |  | inconclusive [inhibitor, partial curve, poor fit]
CCOC(=O)c1c(C)nc2sc3c(=O)n(-c4ccc(C(C)=O)cc4)nnc3c2c1-c1ccc(OC)cc1 |  | inconclusive [inhibitor, partial curve]
Oc1ccc2ccccc2c1/C=N/Nc1nnc(-c2ncc[nH]2)c2ccccc12 | inactive: -13.1% | 
O=C(CSc1nc2ccccc2c(=O)[nH]1)Nc1ccc(S(=O)(=O)N2CCCC2)cc1 |  | active: 14.1 µM
CCOC(=O)c1c(C)n(OCc2ccccc2)c2ccc3nonc3c12 |  | inconclusive [inhibitor, partial curve]

Source: PubChem BioAssay AID894 (National Center for Advancing Translational Sciences (NCATS), 2007)
